Laboratory results as given in PubChem BioAssay AID686979 (National Center for Advancing Translational Sciences (NCATS), 2013).
Hit rate of the full screen: of about 420,000 compounds, about 50,000 (12%) were called active. The shares of active, inactive and inconclusive entries below differ from those in the screen. Calls follow the shape of the dose curve; as a rule, active = well fitted inhibition curve with a large enough effect; inconclusive = small, poorly fitted or top-dose-only effect; inactive = flat fitted curve, though single readings scatter. No potency is given beside an inconclusive call; the fits are too rough.

Experiment: qHTS for Inhibitors of human tyrosyl-DNA phosphodiesterase 1 (TDP1): qHTS in cells in presence of CPT; also: nearly all actives have a fitted effect of over 55% in size
Conditions: chicken DT40 Tdp1-/-;hTDP1 cells + 20 nM CPT, ATP luminescence, 48 h; activity change, negative = growth inhibition: at 46.2 µM (top of the series) unless noted
Method in brief: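 Cell growth measured by CellTiter-Glo luminescence after a minimum 48 h, 37 C compound exposure with 20 nM CPT in Tdp1-knockout DT40 cells stably expressing hTDP1, seeded 400/well; qHTS titration format.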
% is scaled to controls: 0 for no effect and ±100 for the full control effect; potency is read from the fitted curve at half-maximal effect; tags tell the direction and shape of the fitted curve.

Row | Structure (SMILES) | Potency | activity change, negative = growth inhibition
1 | COc1cc(C(CCN2CCN(c3ccccc3)CC2)c2c(OC)cc(OC)c3ccc(=O)oc23)cc(OC)c1OC (stereo not drawn) | active: 23.1 µM | 
2 | CN1/C(=C/C(=O)CSc2ccccc2C(=O)O)C(C)(C)c2ccccc21 | inconclusive [inhibitor, single point] | 
3 | CCn1ccc(C(=O)NC2=NCCS2)n1 |  | inactive: -21.4%
4 | O=C(NC1CCCc2ccccc21)c1ccccn1 (stereo not drawn) |  | inconclusive: -30% [inhibitor]
5 | COc1cccc(OC)c1C(=O)N1CCN(S(=O)(=O)c2ccc(C)cc2)CC1 |  | inactive: -17.3%
6 | Cc1nn(-c2ccc(N3CCCCC3)nn2)c(C)c1CCC(=O)NCc1ccc(F)cc1 | inconclusive [inhibitor, single point] | 
7 | CC(C)C[C@@H](CNCC(=O)[C@H](Cc1c[nH]c2ccccc12)NC(=O)c1[nH]cnc1C(=O)N[C@@H](C)CN)NC(=O)c1nc[nH]c1C(=O)N[C@@H](CC(=O)O)C(=O)O | inconclusive [inhibitor, single point] | 
8 | COc1cc(-c2nnc(SCc3cc(=O)oc4cc(C)ccc34)o2)cc(OC)c1OC | inconclusive [inhibitor, single point] | 
9 | CCOC(=O)c1ccc(N2C(=O)CC(N(Cc3ccc4c(c3)OCO4)C(=O)Nc3ccccc3)C2=O)cc1 (stereo not drawn) | inconclusive [inhibitor, single point] | 
10 | O=C(COc1nsnc1N1CCOCC1)Nc1ccc(Cl)cc1 | inconclusive [inhibitor, single point] | 
11 | COc1ccc2c(c1)n([O-])c1c([n+]2=O)CCC1 |  | inactive: -23%
12 | CCOc1ccccc1-c1nc(-c2ccc(C)nc2OC)no1 | inconclusive [inhibitor, single point] | 
13 | Cc1cc(Cl)cc(Br)c1OCCNCC(C)O (stereo not drawn) |  | inactive: -6.97%
14 | CCC(C)NCCOCCOc1ccc(Cl)cc1Br (stereo not drawn) | inconclusive [inhibitor, single point] | 
15 | COC(=O)c1ccc(C(=O)Nc2ccc3nc(-c4ccncc4)[nH]c3c2)cc1 | inconclusive [inhibitor, partial curve] | 
16 | CC(C)N1CCN(Cc2ccc3c(c2)Cc2ccccc2-3)CC1CCO (stereo not drawn) | inconclusive [inhibitor, single point] | 
17 | O=c1c(-c2ccco2)nc2ccccc2n1C(c1ccccn1)c1nc2ccccc2[nH]1 (stereo not drawn) | inconclusive [inhibitor, single point] | 
18 | COc1ccc(NC2CCCN(C(=O)CN3C(=O)c4ccccc4C3=O)C2)cc1OC (stereo not drawn) | inconclusive [inhibitor, single point] | 
19 | Cc1ccc(NC(=O)Cc2nc(CN(C)CC(=O)Nc3ccc(C)cc3)cs2)cc1 |  | inactive: -5.58%
20 | Fc1ccc(-n2c(Cc3ccccc3)nnc2SCc2nc(-c3cccs3)no2)cc1 | inconclusive [inhibitor, partial curve, poor fit] | 
21 | Cc1ccc([N+](=O)[O-])c(OCCCN2C(=O)NC(C)(C)C2=O)c1 |  | inactive: -9.08%
22 | CCOC(=O)N1CCN(C(=O)c2oc3ccc(S(=O)(=O)N4CCCCC4)cc3c2C)CC1 | inconclusive [inhibitor, single point] | 
23 | COc1ccc(CC(CN)c2ccccc2)cc1 (stereo not drawn) | inconclusive [inhibitor, single point] | 
24 | COC(=O)c1sccc1S(=O)(=O)N(CC(=O)Nc1cccc(C)c1C)c1ccc(C)c(C)c1 | active: 20.6 µM | 
25 | COc1ccc(NS(=O)(=O)c2ccc(NC(=O)c3ccccc3Br)cc2)nn1 | inconclusive [inhibitor, single point] | 

Row | Structure (SMILES) | Potency | activity change, negative = growth inhibition
26 | Nc1nsc2ccccc12 | active: 3.26 µM | 
27 | Cc1sc2ncnc(N3CCC(C(=O)N4CC(C)SC4=Nc4ccc(Cl)cc4)CC3)c2c1C (stereo not drawn) | inconclusive [inhibitor, single point] | 
28 | COc1ccccc1CNC(=O)Cn1cc2c(n1)-c1c(oc(C(=O)N3CCOCC3)c1C)CC2 | inconclusive [inhibitor, single point] | 
29 | Oc1ccccc1-c1cc(-c2ccccc2Cl)[nH]n1 |  | inactive: -30.4%
30 | CC(=O)N(Cc1ccc2c(c1)OCO2)Cc1cc2ccc(C)cc2nc1-c1cccc(C)c1 | inconclusive [inhibitor, full curve, poor fit] | 
31 | Cc1ccn2c(NC3CCCC3)c(-c3ccncc3)nc2c1 | inconclusive [inhibitor, single point] | 
32 | c1ccn2cc(C34CC5CC(CC(C5)C3)C4)nc2c1 | inconclusive [inhibitor, single point] | 
33 | CN1CCCN(C(=O)c2c(F)cccc2Cl)CC1 |  | inactive: -29.7%
34 | O=C(NCc1ccncc1)c1csc([C@@H]2O[C@H](CO)[C@@H](O)[C@H]2O)n1 | active: 2.06 µM | 
35 | CSCCC(NC(=O)OCc1ccccc1)NC(=O)OCc1ccccc1 |  | inactive: 6.52%
36 | NC(=O)c1cccc(Nc2nc(C(N)COCc3ccccc3)cs2)n1 (stereo not drawn) | active: 18.4 µM | 
37 | CN1CCN(c2ncnc3ccc(-c4ccc(C(=O)N(C)C)cc4)cc23)CC1 |  | inactive: 6.22%
38 | O=C1C(Cl)=C(N2CCCC2)C(=O)N1c1ccc(F)cc1 |  | inconclusive: -30.5% [inhibitor]
39 | CN(C)c1ccc(-c2nnc(SCC3CCCO3)n2C)cc1 (stereo not drawn) | inconclusive [inhibitor, single point] | 
40 | N=C1/C(=C/c2cccn2Cc2ccc(F)cc2)C(=O)N=C2SC=CN12 |  | inactive: -29%
41 | C#CCN1C(=O)C(O)(c2c(C)[nH]c3ccccc23)c2ccccc21 (stereo not drawn) | active: 4.61 µM | 
42 | CN1/C(=C/c2cccc[n+]2C)Sc2ccccc21 | active: 0.58 µM | 
43 | CCOc1cc(OCC)cc(C(=O)N2CCC[C@H]2C(=O)N2CCC[C@H]2C(=O)NCc2cccc(OC)c2)c1 |  | inactive: -26%
44 | CN(C(=O)CO)c1c(I)c(C(=O)NCC(O)CO)c(I)c(C(=O)NCC(O)CO)c1I (stereo not drawn) |  | inactive: 1.34%
45 | C=C(C)c1cccc(C(C)(C)NC(=O)N2CCCC(C)C2)c1 (stereo not drawn) | active: 23.1 µM | 
46 | CCc1ccccc1NC(=O)c1ccc2c(c1)CCCN2S(C)(=O)=O |  | inactive: -25.7%
47 | C/C(CC(=O)NC1CCCC1)=N\NC(=O)c1ccc([N+](=O)[O-])c(Cl)c1 |  | inactive: -17.9%
48 | CCSc1nc2ccccc2c(OCc2ccc(Cl)cc2)c1C(=O)OC |  | inactive: -27.9%
49 | CCOc1cccc2sc(N(CCN(C)C)C(=O)c3ccc4c(c3)OCCO4)nc12 | inconclusive [inhibitor, single point] | 
50 | CN(C)C(=O)CSc1nc2ccccc2n1Cc1ccccc1 |  | inconclusive: -31% [inhibitor]

Row | Structure (SMILES) | Potency | activity change, negative = growth inhibition
51 | COc1ccc(OC)c(S(=O)(=O)Nc2ccccc2C)c1 |  | inconclusive: -30.2% [inhibitor]
52 | Cc1ccccc1NC(=O)c1ccc(OCc2c(C)noc2C)cc1 | inconclusive [inhibitor, single point] | 
53 | C/C(=N\NC(=O)c1ccc(N2CCCC2=O)cc1)c1ccccc1 |  | inactive: -8.34%
54 | Cc1onc(-c2ccc(Cl)cc2)c1-c1ccnn1S(=O)(=O)c1ccc(Cl)cc1 | inconclusive [inhibitor, single point] | 
55 | Cc1ccc(CN2C(=O)C(CC(C)C)Nc3ncnc(N4CCN(c5ccccn5)CC4)c32)cc1 (stereo not drawn) | inconclusive [inhibitor, single point] | 
56 | Cc1ccsc1C(=O)N1CCN(c2ncc(C(F)(F)F)cc2Cl)CC1 | active: 11.6 µM | 
57 | NC(=O)c1c(NC(=O)CSc2nc(N)cc(=O)[nH]2)sc2c1CCCC2 | inconclusive [inhibitor, single point] | 
58 | COc1ccc(Cn2c(CO)cnc2SCc2ccc(C)cc2)cc1 | active: 18.4 µM | 
59 | CN(C)S(=O)(=O)N1CCC(n2c(C(F)(F)F)nc3cccnc32)CC1 | inconclusive [inhibitor, single point] | 
60 | CSc1ccc(C2NN=C(c3ccccc3)S2)cc1 (stereo not drawn) | inconclusive [inhibitor, single point] | 
61 | CC(=O)Nc1ccc2ccccc2c1[N+](=O)[O-] |  | inactive: -2.99%
62 | CCOC(=O)c1c(NC(=O)COC(=O)c2ccncc2)sc(C)c1C |  | inactive: 5.19%
63 | CCOCCCNC(=O)c1ccc2c(c1)ncn2-c1ccccc1OC | inconclusive [inhibitor, single point] | 
64 | COc1ccc(NC(=O)c2cc(-c3ccc(F)cc3OC)n[nH]2)cc1OC | inconclusive [inhibitor, single point] | 
65 | N#Cc1ccc(OCC(=O)Nc2cccc(S(=O)(=O)NC3=NCCCCC3)c2)cc1 | inconclusive [inhibitor, single point] | 
66 | CCc1cc(/C(Cc2ccc3ccccc3n2)=N\O)c(O)cc1O | inconclusive [inhibitor, single point] | 
67 | COc1ccc(-c2cnn3c(N)c(S(=O)(=O)c4ccccc4)cnc23)cc1 | inconclusive [inhibitor, partial curve, poor fit] | 
68 | NS(=O)(=O)c1ccc(-n2nncc2-c2ccco2)cc1 |  | inactive: -13.6%
69 | Nc1ncnc2c1ncn2[C@@H]1O[C@H](COP(=O)(O)OP(=O)(O)CP(=O)(O)O)[C@@H](O)[C@H]1O |  | inactive: 2.9%
70 | CC(C)(C)c1ccc(NC(=O)c2c(F)cccc2Cl)cc1 | active: 10.3 µM | 
71 | Cc1ccc(Nc2nc3nonc3[nH]c2=O)cc1 |  | inactive: 1.01%
72 | Cc1nc2cc(OC3(C)CCN(Cc4ccc(OC(F)(F)F)cc4)C3)ccc2s1 (stereo not drawn) | inconclusive [inhibitor, single point] | 
73 | O=C(COC(=O)CCc1nc2ccccc2c(=O)[nH]1)Nc1ccc(Cl)cn1 | inconclusive [inhibitor, single point] | 
